Test results as given in article PMC10384177.
No constants are given. Whether binding was seen depends on the method and setting. Some binding calls cover weakened binding; strength is not graded here. Where a sequence is shown, tags or fusion partners need not be part of it.

By UniProt entry, the sequences of proteins in these tests, tags left out.
UniProt O49686: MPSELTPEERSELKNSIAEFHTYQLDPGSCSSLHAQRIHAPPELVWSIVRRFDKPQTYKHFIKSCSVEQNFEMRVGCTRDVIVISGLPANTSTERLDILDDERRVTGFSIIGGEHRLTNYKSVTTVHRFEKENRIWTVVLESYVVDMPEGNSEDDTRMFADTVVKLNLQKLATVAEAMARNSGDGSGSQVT
UniProt Q8VZS8: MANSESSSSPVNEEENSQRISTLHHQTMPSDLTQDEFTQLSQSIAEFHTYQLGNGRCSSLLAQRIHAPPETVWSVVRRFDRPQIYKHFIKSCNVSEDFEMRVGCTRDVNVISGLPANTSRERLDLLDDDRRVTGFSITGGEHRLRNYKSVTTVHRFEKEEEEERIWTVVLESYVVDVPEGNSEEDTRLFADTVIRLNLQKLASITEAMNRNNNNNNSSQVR

T1: PIA1 (clade F PP2C protein phosphatase), BD-PIA1 two-hybrid fusion (Arabidopsis thaliana) (UniProt Q9SIU8)
T1 sequence: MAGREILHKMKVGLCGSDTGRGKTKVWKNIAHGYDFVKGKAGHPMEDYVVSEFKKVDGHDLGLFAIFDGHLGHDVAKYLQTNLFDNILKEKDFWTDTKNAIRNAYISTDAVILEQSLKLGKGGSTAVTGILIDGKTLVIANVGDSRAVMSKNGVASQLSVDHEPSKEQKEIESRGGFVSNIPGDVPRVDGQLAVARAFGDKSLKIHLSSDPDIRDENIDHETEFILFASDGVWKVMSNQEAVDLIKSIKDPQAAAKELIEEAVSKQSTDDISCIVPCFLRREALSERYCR

B1: SnRK2.8, two-hybrid fusion (enzyme, UniProt Q9M9E9 1-343)
chain: MERYEIVKDIGSGNFGVAKLVRDKFSKELFAVKFIERGQKIDEHVQREIMNHRSLIHPNIIRFKEVLLTATHLALVMEYAAGGELFGRICSAGRFSEDEARFFFQQLISGVNYCHSLQICHRDLKLENTLLDGSEAPRVKICDFGYSKSGVLHSQPKTTVGTPAYIAPEVLSTKEYDGKIADVWSCGVTLYVMLVGAYPFEDPSDPKDFRKTIGRILKAQYAIPDYVRVSDECRHLLSRIFVANPEKRITIEEIKNHSWFLKNLPVEMYEGSLMMNGPSTQTVEEIVWIIEEARKPITVATGLAGAGGSGGSSNGAIGSSSMDLDDLDTDFDDIDTADLLSPL
B2: RCAR2, two-hybrid fusion (receptor, UniProt Q1ECF1 1-211)
chain: MEMIGGDDTDTEMYGALVTAQSLRLRHLHHCRENQCTSVLVKYIQAPVHLVWSLVRRFDQPQKYKPFISRCTVNGDPEIGCLREVNVKSGLPATTSTERLEQLDDEEHILGINIIGGDHRLKNYSSILTVHPEMIDGRSGTMVMESFVVDVPQGNTKDDTCYFVESLIKCNLKSLACVSERLAAQDITNSIATFCNASNGYREKNHTETNL

How the values were obtained:
[1] = molecular target: T1, PIA1 (clade F PP2C protein phosphatase), BD-PIA1 two-hybrid fusion (Arabidopsis thaliana); assay: two-hybrid; yeast AH109, BD-PIA1 as bait; no exogenous ABA; growth on selection media after SD/-Trp/-Leu, SD/-Trp/-Leu/-His with 3-AT, X-alpha-Gal staining; 28 °C
[2] = molecular target: T1, PIA1 (clade F PP2C protein phosphatase), BD-PIA1 two-hybrid fusion (Arabidopsis thaliana); assay: two-hybrid; yeast AH109, BD-PIA1 as bait; in the presence of ABA; growth on selection media; 28 °C
[3] = molecular target: T1, PIA1 (clade F PP2C protein phosphatase), BD-PIA1 two-hybrid fusion (Arabidopsis thaliana); assay: two-hybrid; yeast AH109, BD-PIA1 as bait; no exogenous ABA; growth on selection media after SD/-Trp/-Leu, SD/-Trp/-Leu/-His with 3-AT, X-alpha-Gal staining; 28 °C; remark: listed apart in the source

| Molecule | binding [1] | binding [2] | binding [3] |
| --- | --- | --- | --- |
| RCAR11, two-hybrid fusion (from UniProt O49686 1-191) (receptor) | no binding |  |  |
| RCAR12, two-hybrid fusion (from UniProt Q8VZS8 1-221) (receptor) | no binding |  |  |
| B1 |  | binds | binds |
| B2 |  | binds | binds |
